According to ChEMBL document CHEMBL1201862, “PubChem BioAssay data set” (2004):

Test system: NCI-H322M
Assay: inhibition of tumour cell growth, NCI panel, 48 h

Compound | GI50
O=NN(CCF)C(=O)NC1CCSCC1 | inactive: > 100 µM
O=C(Nc1cc2cc([N+](=O)[O-])ccc2oc1=O)c1cccs1 | inactive: > 100 µM
O=C(SCc1cccc2ccccc12)c1ccc(Cl)cc1 | inactive: > 100 µM
CCN(CC)/C(Sc1ccccc1)=C(\C(Cl)=C(Cl)Cl)[N+](=O)[O-] | inactive: 21.6 µM
O=C1NC2C(=CC(O)C(O)C2O)c2cc3c(cc21)OCO3 (stereo unspecified) | active: 0.43 µM
Cc1cccc(C)c1NC(=O)C1C(=O)N(c2c(C)cccc2C)C(=O)/C1=N\N (stereo unspecified) | inactive: > 100 µM
CCC1C(=O)OCc2c1cc1n(c2=O)CCC12OCCO2 (stereo unspecified) | inactive: > 100 µM
Cc1nn(C(=O)Cc2ccccc2)c2c1C(c1ccccc1[N+](=O)[O-])SC(=N)N2 (stereo unspecified) | inactive: > 100 µM
CC(=N\N=C\c1ccccn1)/C(C)=N/N=C(C)/C(C)=N/N=C(C)/C(C)=N/N=C/c1ccccn1 | inactive: > 100 µM
CC(C)C(C)C(O)C(O)C(C)C1CCC2C3COC(=O)C4CC(O)C(O)CC4(C)C3CCC12C (stereo unspecified) | inactive: > 100 µM
COc1cc2nc(-c3cccs3)nc(N3CCN(c4ccccc4C(F)(F)F)CC3)c2cc1OC | inactive: > 100 µM
N#Cc1c(C#N)c(-c2ccco2)n(/N=C/c2ccco2)c1N | inactive: 33.1 µM
COCOC1/C=C/CCCCC(=O)C(C)C#CC1 (stereo unspecified) | inactive: 12.2 µM
CCOC(=O)/C(C(=O)c1ccccc1)=C1/NCCN1C | inactive: > 100 µM
COc1cc(C[C@H]2C(=O)OC[C@@H]2Cc2ccc(OC)c(OC)c2)cc(OC)c1 | inactive: > 100 µM
C/C(=N\NC(=S)N1CCN(c2ccccn2)CC1)c1cccc2cccnc12 | inactive: 3.3 µM
COc1ccc(CN2C(=O)CCC/C=C\[C@H]2CI)cc1 | inactive: 13.2 µM
CCCNc1ncnc2c1ncn2C | inactive: > 100 µM
C[C@]12CC[C@H]3[C@@H](CC=C4C[C@@H](O)CC[C@@]43C)[C@@H]1C/C(=C\c1cccnc1)[C@@H]2O | inactive: 37.9 µM
CCCC(=O)c1ccc2c(ccc(=O)n2C)c1 | inactive: > 100 µM
COc1ccc(C2C(C(=O)O)=C(CO)Oc3cc4c(cc32)OCO4)cc1 (stereo unspecified) | inactive: > 100 µM
CC(CCc1ccc2c(c1)c(N)c1ccc(N)cc1[n+]2[O-])CC(C)(C)C (stereo unspecified) | inactive: 1.51 µM

Compound | GI50
CCOC(=O)CCC(C(=O)OCC)n1nc2ccc(Nc3c(C)[n+]([O-])c4cc(F)c(OCC)cc4[n+]3[O-])cc2n1 (stereo unspecified) | inactive: > 100 µM
Cc1cc(-c2ccc[nH]2)on1 | inactive: > 100 µM
CC(NC(=O)C(=O)N/N=C1\C[C@@H](c2ccccc2)Nc2ccccc21)c1ccccc1 (stereo partly specified) | inactive: > 100 µM
COC(=O)Cc1ccc(Oc2nc3ccccc3nc2-c2cccs2)cc1 | inactive: > 100 µM
C=C1CC(OC(C)=O)/C=C(/C)CCC(C(C)(C)O)CC1O (stereo unspecified) | inactive: > 100 µM
CC1CN1c1c(C(=O)/C=C/c2ccc(Cl)cc2)c(-c2ccccc2)nn(C)c1=O (stereo unspecified) | inactive: 5.27 µM
Nc1ccc(-c2nc3ccccc3s2)cc1C#Cc1ccccc1 | inactive: 17.2 µM
N#C[C@]12CC3(CC[C@H]1CC1(C2)OCCO1)OCCO3 | inactive: > 100 µM
CCN(CC)c1ccc2c(c1)N=C1N=CC=CN1C2(c1ccc(N(C)C)cc1)c1ccc(N(C)C)cc1 | inactive: 10.1 µM
Cc1cccc(C)c1NC(=O)CCCC(=O)C1CCC/C1=N\NC(=O)C(=O)NN (stereo unspecified) | inactive: > 100 µM
Cc1ccc(C2=Nc3c(c(C)nn3-c3ccccc3)N=C(C(=O)O)C2)cc1 | inactive: > 10 µM
Clc1ccc(OCc2nnc(COc3ccc(OCc4nnc(COc5ccc(Cl)cc5Cl)o4)c(Cl)c3)o2)c(Cl)c1 | inactive: 32.7 µM
CCc1c(C)c(C#N)c(=S)n(C2OC(COC(C)=O)C(OC(C)=O)C(OC(C)=O)C2OC(C)=O)c1C (stereo unspecified) | inactive: > 100 µM
CC(=O)N1CCOC12N=NC(C)(C)O2 (stereo unspecified) | inactive: > 100 µM
Cc1cc(C#N)c(Nc2ccccc2[N+](=O)[O-])s1 | inactive: 22 µM
COC[C@@H](/N=C/N1CCc2cc(OC)c(OC)cc2C1)C(C)(C)C | inactive: > 100 µM
C[Si](C)(c1ccccc1)C1CC(=O)CC(=O)C1 | inactive: > 100 µM
CC(=O)OC1COC(N2C(=O)/C(=N\Nc3ccc([N+](=O)[O-])cc3)c3cc(Br)c([N+](=O)[O-])cc32)C(OC(C)=O)C1OC(C)=O (stereo unspecified) | inactive: 69.3 µM
CC(=O)OI1NC(=O)c2ccccc21 | inactive: > 100 µM
COc1ccc(C(=O)/C=C/c2ccc(OCC#N)cc2)cc1OC | inactive: 18.2 µM
COC(=O)[C@@]12CCCC(=O)[C@@H]1[C@H]1CCCC[C@H]12 | inactive: > 100 µM
COc1cc(Oc2c(O)c(C)c(OC)c(C(C)=O)c2O)c(C(C)=O)c(O)c1C | inactive: 64.9 µM

Compound | GI50
CC(=O)N(C(C)=O)c1cc2c3c(c1)CCCN3CCC2 | inactive: > 10 µM
O=C1N[C@@H]2c3c(Br)sc(Br)c3C(=O)[C@@H]2O1 | inactive: 8.55 µM
c1ccc(-c2ccc(-c3ccc(C4=NCCN4)cc3)o2)cc1 | inactive: 2.69 µM
C=CCN1C(=O)CNC1=S | inactive: > 100 µM
O=NN(CCCl)C(=O)N[C@H]1CC[C@H](C(=O)O)CC1 | inactive: > 100 µM
CC(=O)Oc1cc2c(cc1OC(C)=O)C1(C)CCC2(C)c2cc(OC(C)=O)c(OC(C)=O)cc21 | inactive: 32.1 µM
Cc1ccc2nc(N/N=C/c3sccc3C)cc(C)c2c1 | inactive: 66.5 µM
CC1(C)NC(C)(C)/C(=N\O)C(=NO)/C1=N/O | inactive: > 100 µM
Cc1c2c(ccc3ccccc32)c[n+]2ccccc12 | inactive: 10.1 µM
Cc1ccc(/C=C2\CNC/C(=C\c3ccc(C)cc3)C2=O)cc1 | inactive: 2.86 µM
N#CCC(=O)N/N=C1/C(=O)NC(=O)C(=O)C1c1nc2ccccc2s1 (stereo unspecified) | inactive: > 100 µM
c1ccc(C2(c3cc4ccccc4[nH]3)OCCO2)cc1 | inactive: 32 µM
CCOc1c(OC)cc(C2c3cc4c(c(OCC)c3CC3COC(=O)C32)OCO4)cc1OC (stereo unspecified) | inactive: 4.38 µM
O=c1oc2ncccc2n1Cc1ccc([N+](=O)[O-])cc1 | inactive: > 100 µM
C/C=C/CC(C(=O)OCC)(N(C)C(=O)OC(C)(C)C)S(=O)(=O)c1ccc(C)cc1 (stereo unspecified) | inactive: > 100 µM
CCOC(=O)C(CC/C=C\c1ccccc1)N1CCC[C@H]1C(=O)OC (stereo partly specified) | inactive: > 100 µM
COc1cccc(/C=C/c2ccc(S(N)(=O)=O)cc2)c1 | inactive: > 100 µM
CC(=O)Oc1ccc(/C=C/C(=O)OCCOC(=O)/C=C/c2ccc(OC(C)=O)c(OC(C)=O)c2)cc1OC(C)=O | inactive: 23.8 µM
O=C(NNC(=O)c1ccccc1O)c1ccccc1O | inactive: 1.18 µM
CCN(CC)CCC(=O)c1ccc(C)cc1 | inactive: > 100 µM
Clc1ccc(OCc2nnc3sc(SSc4nn5c(COc6ccc(Cl)cc6)nnc5s4)nn23)cc1 | inactive: > 100 µM
COc1cc(/C=C\c2ccc(O)cc2)cc(OC)c1OC | inactive: > 100 µM

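Compound exposure: 48 hours, 5 concentrations, 96-well plates. GI50 marks 50% less growth.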 Calls of active or inactive are those of the source. No stated cut-off is given here; in the data, active = GI50 up to about 1.1 µM and inactive = higher.
